Results taken from the supplement of paper PMC11417369.
The other results are listed elsewhere or left out.

tested on: PF3D7_0420300 AP2 domain 1 (GST-tagged); assay: gcPBM binding intensity (ln(normalized median fluorescence intensity)); higher = stronger DNA binding
Outline: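 GST-tagged P. falciparum DNA-binding domains, expressed in E. coli (about 25 μg on average), were applied for 1 h to an Agilent 4 × 180k array of primer-extended double-stranded 36-bp intergenic genomic probes plus negative controls. The binding buffer was 1× PBS with 1% milk, 0.2 mg/ml BSA, 0.5% salmon testes DNA and 0.03% Triton X-100. Bound protein was detected with Alexa488 anti-GST antibody and scanned at 488 nm. Binding intensity is the highest Masliner-normalised natural-log median intensity across replicate spots of either probe orientation.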

Sequence	gcPBM binding intensity (ln)
ATTTAACATATAAAATGTACATATATATATATATTT [XGTACX_site2525]	9.25
GAATAAATTAAAAATGCACACTTTGATGGGTACATT [CACACA_site5220]	9.3
ACGTTTTATAATTAATGTACAAATATTAAAATTGCA [XGTACX_site7869]	9.07
TATGAATGGTTAAGTACACACATATTAAGATATGTA [CACACA_site5852]	9.35
TTATTTATTTTAAATTCACACATCGTGCTATTATAT [CACACA_site5003]	9.17
TCATATATTTATGTATGTACATATATATATAGATTA [XGTACX_site380]	9.01
TATATTTGCAGTAATAATAATTATTATAAAAGATAA [XGTACX_negctrl_site547]	9.1
TTTTTATAACGTAATAAATAAAACGTCTATACTATA [XGTACX_negctrl_site176]	8.98
AAAAATATAATATAATGTACACAAAAAAAAAAATTC [XGTACX_site3657]	9.48
AATTAGACATAATATACACACATATATTATAGATAT [CACACA_site7297]	9.69
TAAAGATATTATTTTTGTACATATTGATATAATGAA [XGTACX_site6571]	8.91
TATATTATTATAATTTGTACATATCTAATTATATAT [XGTACX_site5342]	9.17
ATATAACATAGACACACACACATATAAATATATTAT [CACACA_site7865]	10
CTTTATAAAATAAGAGTGCGTTATATTGAATTGTAT [GTGCAC_site9390]	9.18
ATATAAGATTTAAGAAGTACAATTATACAGTAGATC [XGTACX_site7501]	9.38
CATATAAAATAATTCACACAAATATACAAATACCCA [CACACA_site5340]	9.66
AAAAAAAATTTCTTCTGTACGCATAAATTTTTATTA [XGTACX_site8721]	8.94
TATTTAATTTTTAAATGTACATATAAAATAATATAT [XGTACX_site2422]	8.89
TTTTTCAGAAAAGAAACACACATATATATATTTATA [CACACA_site2372]	9.23
AATGATAATATTTCCTTCTTTTTTACTTCTTTCTTT [CACACA_negctrl_site776]	9.4
AAAATGGTTTATAAATGTACATATATTATATATAAC [XGTACX_site7959]	9.28
CCTATCCAGACATATACACACATATCTATTTATATA [CACACA_site5001]	9.66

Sequence	gcPBM binding intensity (ln)
TATAAAAAATAATACACACACATGGCGACAAAATAA [CACACA_site2420]	10.2
TTTACTTTCCCAAGTTGTACTGCTTCTAAGCTTTTT [XGTACX_site2708]	9.21
GATAAATTAAAACACACACACATATATATATATATA [CACACA_site3962]	9.67
AAAAAAATAGTCTTCTTGCACTTTTTAATTTATTTT	9.11
TTATAATAAAATGAATATATATAATTTAAAATATTT [CACACA_negctrl_site1651]	8.95
AAAAAAAGTTATATTACACACTTTATTCGTTAACTT [CACACA_site3013]	9.47
ATATTTATGAAGTTCACACATATATATATATATATA [CACACA_site5954]	9.16
ACAACAATATTTGAATGTACTCTATTTTCGTTGTTC [XGTACX_site593]	9.4
CTCAAAGGAATATTCACACATAAATTATAGACTACA [CACACA_site6050]	9.23
TAATTATATTCACTTGCTATATAAATTATATATATT [CACACA_negctrl_site526]	9.34
ATACACACTCAAAAAAGTACTTAACTACATGAATTG [XGTACX_site6366]	9.39
AAGAAAAAAATATATGTTTATTTACTTTAATAATTT [TGCATGCA_negctrl_site168]	9.02
GTATATATATATATATGCAAATGTATAAATCTACAT [CACACA_negctrl_site546]	9.2
TATATATAAATATGCTGTACGTTTTAATACGTTAAG [XGTACX_site2378]	8.92
TTCTGACCAATGCTATAAAATAATACAAAAGAAAAA [GTGCAC_negctrl_site3]	9.05
TGAAGAGGAAACAAACAAAATGAATAATTAAAAAGG [CACACA_negctrl_site1601]	9.36
TATATCCACATTTTTAGTACTTAAAAATAAATAAAC [XGTACX_site3826]	9.06
AAGGAAAACAATAGGTGTACCAAACGTCCTAGGAAC [XGTACX_site5732]	9.69
TTTCTTCATTTTTTCACACATAAGAAAATATAATCA [CACACA_site4275]	8.91
AAAAAAGCAATATGATGTACATTTACTTTGTGAAAG [XGTACX_site4450]	9.27
TAAAAAAATAAAATTACACACATATATAAATATATA [CACACA_site2620]	9.47
ATATATAAATATATTTGTACATATAATATGTATTAT [XGTACX_site8820]	9.21

Sequence	gcPBM binding intensity (ln)
CTAGGTATGCTTTAAACATGCAAAAATACAAATTAC [TGCATGCA_site239]	9.26
AAATATTATAAAAAGGTGCATTTTTATTATATGAGT	9.23
TTTTGTTATAATAAAGTGCATTTAGTCGGGTTACAA [GTGCAC_site9779]	9.09
ATATATGTTTTTATATGTACTTATAATGTGTGTATA [XGTACX_site5165]	9.71
AATTTAAAAAAAATCACACACAGAAAAAAAAAAAAA [CACACA_site2322]	9.51
ATTTATTAAATTTATAGTACTCAAAGATTTTTATTT [XGTACX_site6661]	9.07
AAATAAAACAATTAACGTACAAGCATATATATATAT [XGTACX_site8508]	9.56
TATATATATATTATATGTACACAAGGAAATATGCAT [XGTACX_site5637]	9.43
TATGTATAATTATTTTGTACTTATTAAATTTTTTTT [XGTACX_site5413]	9.18
AAATAAAAAAAAATAGCACACATAAATATATTATAT [CACACA_site8155]	9.76
TTATAATCAATGAATACACACATATATTTCATTAAT [CACACA_site5909]	9.32
TAATAATAGAGACACACACACATAGACATATAAATA [CACACA_site6729]	10.2
ATCTATGAAAAAGGTACATGCAATAAAGAAACATAT [TGCATGCA_site805]	9.63
TTATACTATTTTTATACATGCATTTCTATATATTTT [TGCATGCA_site316]	9.61
TTCAAAATAAAAAATTCACACACATATATATATATA [CACACA_site8653]	9.33
ATCTAAACAAATAATACACACAATAAAATAGGAAGA [CACACA_site4072]	9.74
TGTGAATAAATAAGCACACATAAACCCATATATAAA [CACACA_site4103]	9.54
TAATATTTACATATTACACACACGTATTATTAAATA [CACACA_site6340]	9.55
TATTTTTTAAAAATGGGTACACATAAATAAATAAAT [XGTACX_site7643]	9.23
ATTATTCATTTATGTAGTACATTTTAATACATTTAA [XGTACX_site3599]	9.26
AAAAAAAAAAAAGTTACACACAAATAAAATATTTGG [CACACA_site694]	9.47
AAGAAAAATTTAAACTGTACTTGTTTTCCAATGAAC [XGTACX_site4443]	9.14

Sequence	gcPBM binding intensity (ln)
ATAAAAAAAAATAAATGTACAAATTAACAAAATAAT [XGTACX_site5048]	9.53
AATCACCAAATATGTACACACCTTAACATGTTTATA [CACACA_site5180]	9.64
TTATAATATGGATACACACACATATATAAATATATA [CACACA_site5314]	9.84
AAAAAATAAATAAATACACACAAATCTATATTTATA [CACACA_site7243]	9.51
ATCTAAATTTTTCCATGTACATATACTTTTATGCAT [XGTACX_site2683]	9.4
AAAATATGTAGACACATACACACATATATATATATA [CACACA_site1221]	9.51
TTTTTTTTTTCAAATGCATGCAAAAAAAAAAAAATA [TGCATGCA_site945]	8.68
TTTTCTTTTTCCAAAAGTACGTAATTTAAACATTTT [XGTACX_site2066]	8.91
TATATGTATGTTTGTTTGTTTGTATTTTTTAAGGTA [XGTACX_negctrl_site619]	9.65
ATAATTATGAAGCATACATGCATGTCCTGGCTTAAA [TGCATGCA_site491]	9.11
AAATTAGAAATACCTACACACTTATCAAAATAAATT [CACACA_site7132]	9.57
CTAAAATACGGACACACACACACATATATATATATA [CACACA_site6138]	10.2
ATTATCTCCGCCATGTGGACACATATAAGACATTTT [XGTACX_site2889]	9.28
ATTGTATATAAATGAGTGCATACTATGTTGTTCTTA [GTGCAC_site9678]	9.26
TATGTAAATCTCTTAAGAATTCGCTATATCTCTTTT [CACACA_negctrl_site1180]	9.09
ATATAAGCGTATACATGTACATATATATCTTTGTAA [XGTACX_site2742]	9.25
AGGCTACGAATAGAATGTACCCGAAATAAGGAATAT [XGTACX_site6012]	9.21
GCAAGGAAATAATTGATAATATATATATATATATAT [GTGCAC_negctrl_site400]	9.09
GAGTAAATAAATAAATGTACATATATATATATTATC [XGTACX_site8466]	9.38
AATATATATATATATATATATTTTTGTTAGAATATG [XGTACX_negctrl_site58]	8.96
ATACATAAATATTGATGTACTCATTTAATATATTAT [XGTACX_site3992]	9.22
TATAATAAATATTAACGTACTCATATATATATATAT [XGTACX_site3871]	9.25
